Experimental data from the supplement of paper PMC11876631.
Positions count from the first letter of the chain named. Names and notes keep the numbering of the source. ± gives the standard deviation of the averaged measurements. Laboratory Escherichia coli strains with one amino-acid change in an essential protein, pooled on minimal glucose agar with carbenicillin or gentamicin at twice the control MIC (plus kanamycin and chloramphenicol for the plasmids), 48 h. Fold change of barcode share against drug-free plates; higher = less susceptible. Active = above 20 in both replicates (the paper's putatively resistant). '<' = one read or none on drug, '>' = one read or none on a drug-free plate. Shares are relative, so most strains fall below 1 when a few take over. Listed are strains with at least 15 reads on both drug-free plates, and hits; most hits rest on fewer reference reads. Replicate rank correlation about 0.5. Edits are read from barcodes.

B1: mukF V35W (protein)
chain: MSEFSQTVPELVAWARKNDFSISLPVDRLSFLLAWATLNGERLDGEMSEGELVDAFRHVSDAFEQTSETIGVRANNAINDMVRQRLLNRFTSEQAEGNAIYRLTPLGIGITDYYIRQREFSTLRLSMQLSIVAGELKRAADAAEEGGDEFHWHRNVYAPLKYSVAEIFDSIDLTQRLMDEQQQQVKDDIAQLLNKDWRAAISSCELLLSETSGTLRELQDTLEAAGDKLQANLLRIQDATMTHDDLHFVDRLVFDLQSKLDRIISWGQQSIDLWIGYDRHVHKFIRTAIDMDKNRVFAQRLRQSVQTYFDEPWALTYANADRLLDMRDEEMALRDEEVTGELPEDLEYEEFNEIREQLAAIIEEQLAVYKTRQVPLDLGLVVREYLSQYPRARHFDVARIVIDQAVRLGVAQADFTGLPAKWQPINDYGAKVQAHVIDKY
B2: mukF V35Q (protein)
chain: B1 chain with W35Q
B3: mukF V59Q (protein)
chain: B1 chain with W35V, V59Q
B4: mukF V59A (protein)
chain: B1 chain with W35V, V59A
B5: mukF V132A (protein)
chain: B1 chain with W35V, V132A
B6: mukF V59P (protein)
chain: B1 chain with W35V, V59P

These proteins were tested against Escherichia coli (laboratory strain) (assay: barcode share on antibiotic plates over drug-free plates; higher = less susceptible). Conditions: antibiotic: carbenicillin; 2× MIC (3.1 µg/mL).
Procedure: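 A pool of E. coli strains, each edited to carry one amino-acid change in an essential protein, was grown for 48 h on minimal glucose agar with or without antibiotic; strain barcodes were sequenced; mean of two replicates.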

Row | Protein | fold change of barcode share
1 | B1 | 0.269 ± 0.13
2 | B2 | 0.277 ± 0.053
3 | B3 | 0.322 ± 0.12
4 | B4 | 1.19 ± 0.89
5 | B5 | 0.131 ± 0.027
6 | B6 | 0.918 ± 0.016

Same assay, conditions: antibiotic: gentamicin; 2× MIC (MIC 0.45 µg/mL)

Row | Protein | fold change of barcode share
7 | B1 | < 0.00975
8 | B2 | < 0.00314
9 | B3 | < 0.00448
10 | B4 | < 0.00532
11 | B5 | < 0.0142
12 | B6 | 0.0159 ± 0.0045
